# From ChEMBL document CHEMBL4888484, “Replenishing the malaria drug discovery pipeline: Screening and hit evaluation of the MMV Hit Generation Library 1 (HGL1) against asexual blood stage Plasmodium falciparum ,using a nano luciferase reporter read-out” (2022)
# Where “and” joins values, the source holds several entries; their conditions need not be identical. Equal entries are not always repeated. The whole screen tested about 150,000 compounds, of which about 540 (0.36%) showed an effect of 50% or more. The list shows a part of the results.
# Test system: Plasmodium falciparum
# Assay: Primary screen in NF54 nanoGlo assay, in single point, at 2uM, 72h; a lower Z score goes with more inhibition
# Format: functional, Erythrocyte
# Details: timepoint 72 hour
smiles,measurement,setting,value
OCc1ccccc1NCc1cnn(Cc2ccccc2Cl)c1,% Inhibition,,12%
same,Z score,,-1.98
CCn1c(-c2cc(NC(=O)c3cc(F)cc(F)c3)[nH]n2)cc2ccc(OC)cc21,% Inhibition,,14%
same,Z score,,-1.57
CC(C)[C@H](NC(=O)C(F)(F)F)c1nc(C2CCCO2)no1 (some centres not stated),% Inhibition,,4%
same,Z score,,-0.48
O=C(NCc1cc(F)cc(F)c1)C1=CCC1,% Inhibition,,-12%
same,Z score,,1.44
CC(C)CCN(Cc1nnnn1C1CC1)C1CC1,% Inhibition,,-7%
same,Z score,,0.69
COCCc1noc(CNC(=O)c2cc(=O)c3cccc(F)c3[nH]2)n1,% Inhibition,,-6%
same,Z score,,0.7
O=C(CS(=O)(=O)C[C@H]1CCCO1)NCCc1ccc(F)cc1,% Inhibition,,-5%
same,Z score,,0.93
CC(C)Cc1nc(Cc2ccccn2)n(-c2ccccn2)n1,% Inhibition,,9%
same,Z score,,-1.24
CCN(CC)C(=O)c1ccc([C@@H](O)C(Cl)(Cl)Cl)o1,% Inhibition,,-17%
same,Z score,,2.27
COCCCCC(=O)Nc1cccc(F)c1C,% Inhibition,,-10%
same,Z score,,1.46
Cc1ccc(C)c(NC(=O)c2ccccc2OC[C@H]2CCCO2)c1,% Inhibition,,-9%
same,Z score,,1
NC(=O)CCn1ccc(NC(=O)[C@H]2CCCOC2)n1,% Inhibition,,-13%
same,Z score,,1.78
Cc1cc(=O)c2c(n1Cc1ccccc1)CC(C)(C)CC2=O,% Inhibition,,-6%
same,Z score,,1.13
Cc1nnc(CC(=O)N2CCCNC(=O)[C@@H]2CC(C)C)o1,% Inhibition,,-4%
same,Z score,,0.46
COc1cc(=O)n(Cc2cn3cccnc3n2)cc1Br,% Inhibition,,-14%
same,Z score,,1.38
Cc1nc(Cn2nnc(NC(=O)c3ccsc3)c2C)no1,% Inhibition,,-9%
same,Z score,,1.07
CNC[C@H]1CCN(C(=O)c2sc3cc(C(F)(F)F)ccc3c2Cl)C1,% Inhibition,,5%
same,Z score,,-0.65
O=C1CCC(c2ccccc2)(c2ccccc2)CN1C[C@H]1CCS(=O)(=O)C1,% Inhibition,,-10%
same,Z score,,1.98
CCN(CCN1CCCC1)S(=O)(=O)Cc1cccc(C)c1,% Inhibition,,-3%
same,Z score,,0.65
CCn1cc(Br)c(CNC)n1,% Inhibition,,-30%
same,Z score,,3.56
O=C(CN1C(=O)NC2(CCCC2)C1=O)c1cc2ccccc2o1,% Inhibition,,-1%
same,Z score,,0.13
CN(Cc1ccc(N2CCCC2)cc1)C(=O)C1CCN(c2cnc3nccnc3c2)CC1,% Inhibition,,-4%
same,Z score,,0.68
COc1ccc(NC(=O)c2ccc(N[C@@H](C)C(=O)N3CCCC3)cc2)cc1,% Inhibition,,4%
same,Z score,,-0.79
Brc1ccc(-c2nc3n(n2)CCCCC3)cc1,% Inhibition,,30%
same,Z score,,-3.83
Cn1cccc1C(=O)N1CCOc2ccc(C(=O)N3CCCC3)cc2C1,% Inhibition,,-3%
same,Z score,,0.41
COc1ccccc1NC(=O)N1CCCn2nc(C)cc21,% Inhibition,,-10%
same,Z score,,1.29
c1ccn2ncc(-c3ccc4c(c3)OCCO4)c2c1,% Inhibition,,0%
same,Z score,,-0.04
CCN(CC)S(=O)(=O)N[C@H](c1cnn(C)c1)C1CC(O)C1 (some centres not stated),% Inhibition,,7%
same,Z score,,-0.85
CC[C@@H]1NC(=O)c2ccc(OC)c(c2)OCCCn2cc(nn2)CNC(=O)[C@H](Cc2ccccc2)NC1=O,% Inhibition,,-6%
same,Z score,,1.05
Cc1cccc(-c2ncc(C(=O)NCCN3CCOC3=O)c(O)n2)c1,% Inhibition,,2%
same,Z score,,-0.29
COc1cc(CNC(C)C)cc(Br)c1OCC#N,% Inhibition,2 µM,-4% and -3%
same,Z score,2 µM,0.43 and 0.41
CN1CCC(CNC(=O)Nc2ccc3c(c2)N(C)CC3)(N2CCCCC2)CC1,% Inhibition,,-17%
same,Z score,,1.54
O=c1cnc2cc(Br)cnc2[nH]1,% Inhibition,,-8%
same,Z score,,1.27
CN([C@@]1(C#N)CCOC1)S(=O)(=O)c1cccc2nsnc12,% Inhibition,,-8%
same,Z score,,0.68
C[C@H](NC(=O)N1CCC(c2ccc3cccnc3n2)CC1)c1nccs1,% Inhibition,,-13%
same,Z score,,1.94
CCOCCC1(C(=O)NCc2cn([C@H]3CCOC3)nn2)CCCC1,% Inhibition,,-4%
same,Z score,,0.89
Cc1cc(C(=O)N[C@@]2(C#N)CC2(C)C)cc(C)c1F,% Inhibition,,-11%
same,Z score,,1.83
CC1CCC2(CC1)C[C@H](C)c1ccccc1CN2 (some centres not stated),% Inhibition,2 µM,2% and -14% and 1%
Cc1cc(-c2cccc(Cl)c2)ccc1NC(=O)N1CC(CO)C1,% Inhibition,,-4%
same,Z score,,0.42
CCc1ccccc1CN1CCC[C@@]2(CCN(C(=O)c3ccco3)C2)C1,% Inhibition,,-4%
same,Z score,,0.49
CCc1nc2cc(N3CCC(C(=O)NCc4cc(F)cc(F)c4)CC3)cnc2nc1CC,% Inhibition,,-5%
same,Z score,,0.82
CO[C@H]1CN(c2nccc(C3CCCC3)n2)CC[C@H]1N,% Inhibition,,-14%
same,Z score,,1.55
Cc1cccc(-c2nnc(C)c(N3CCN(C)CC3)n2)c1,% Inhibition,,0%
same,Z score,,0.1
Cc1n[nH]cc1CN(C)S(=O)(=O)c1cc(-c2cc(C(F)(F)F)on2)oc1C,% Inhibition,,-10%
same,Z score,,1.93
